Measurements as given in the antibiotic and cytotoxicity screens of Wong et al. (2023).
The other results are listed elsewhere or left out.

Each compound was assayed on HepG2 (assay: cytotoxicity call (relative viability < 0.9)). Conditions: 10 µM.

Row | SMILES | cytotoxicity call
1 | CC(=O)N1CCc2nc(N)sc2C1 | inactive
2 | COc1ccc(CN(C)C[C@H]2OCCCC[C@H](C)Oc3ccc(NC(=O)Nc4ccc(C(F)(F)F)cc4)cc3C(=O)N([C@@H](C)CO)C[C@H]2C)cc1 | active
3 | C[C@H]1CN([C@@H](C)CO)C(=O)c2cc(NS(=O)(=O)c3ccc(F)cc3)ccc2O[C@H]1CN(C)S(=O)(=O)c1cccs1 | inactive
4 | Nc1nc(C(F)(F)F)ncc1C(=O)O | inactive
5 | C[C@H]1O[C@@H](O[C@H]2[C@@H](O)[C@@H](O)[C@@H](O[C@H]3CC[C@]4(C)[C@H]5CC=C6[C@H]7CC(C)(C)[C@H]8C[C@]7(C(=O)O8)[C@@H](O)C[C@]6(C)[C@@]5(C)CC[C@H]4C3(C)C)O[C@@H]2CO)[C@@H](O)[C@@H](O[C@H]2OC[C@@H](O)[C@@H](O)[C@@H]2O)[C@@H]1O | inactive
6 | C[C@@H]1CN([C@H](C)CO)C(=O)c2cc(NC(=O)C3CC3)ccc2O[C@H]1CN(C)Cc1ccc2c(c1)OCO2 | inactive
7 | C/C=C/c1cnc2c(c1)C(=O)N([C@@H](C)CO)C[C@@H](C)[C@@H](CN(C)S(=O)(=O)c1ccc(OC)cc1)O2 | inactive
8 | C[C@@H]1CCCCO[C@@H](CN(C)Cc2ccc3c(c2)OCO3)[C@H](C)CN([C@H](C)CO)C(=O)c2cc(NC(=O)Nc3ccc4c(c3)OCO4)ccc2O1 | active
9 | C[C@@H]1CN([C@@H](C)CO)S(=O)(=O)c2ccc(-c3ccncc3)cc2O[C@H]1CN(C)Cc1ccc(Oc2ccccc2)cc1 | active
10 | C[C@H]1CN([C@@H](C)CO)C(=O)Cc2cc(N(C)C)ccc2O[C@H]1CN(C)C(=O)Nc1ccc2c(c1)OCO2 | inactive
11 | C[C@H]1CN([C@@H](C)CO)C(=O)Cc2cc(NC(=O)C3CC3)ccc2O[C@@H]1CN(C)Cc1ccc(C(=O)O)cc1 | inactive
12 | C[C@@H]1CN([C@H](C)CO)C(=O)c2cc(NC(=O)C3CCCCC3)ccc2O[C@@H](C)CCCCO[C@@H]1CN(C)S(=O)(=O)c1ccccc1 | inactive
13 | COc1ccc(CN(C)C[C@@H]2OCCCC[C@@H](C)Oc3ccc(NC(=O)c4ccccc4)cc3C(=O)N([C@H](C)CO)C[C@@H]2C)cc1 | inactive
14 | Cc1noc(C)c1S(=O)(=O)Nc1cccc2c1O[C@@H](CN(C)Cc1ccncc1)[C@@H](C)CN([C@H](C)CO)C2=O | inactive
15 | Cc1noc(C)c1S(=O)(=O)N(C)C[C@@H]1OCCCC[C@H](C)Oc2ccc(NS(=O)(=O)c3cn(C)cn3)cc2C(=O)N([C@@H](C)CO)C[C@H]1C | inactive
16 | C[C@@H]1CN([C@@H](C)CO)C(=O)Cc2cc(NC(=O)CCC(F)(F)F)ccc2O[C@H]1CN(C)Cc1ccc(C(=O)Nc2ccccc2N)cc1 | inactive
17 | CC(C)Cn1c(=O)[nH]c2c1c(=O)n(C)c(=O)n2C | inactive
18 | CO[C@@H]1CN(C)C(=O)c2ccc(NC(=O)c3ccccc3)cc2OC[C@@H](C)N(C(=O)CN(C)C)C[C@H]1C | inactive
19 | C[C@@H]1CN([C@H](C)CO)C(=O)c2cc(NC(=O)CCCN(C)C)ccc2O[C@H]1CN(C)S(=O)(=O)c1ccc(F)cc1 | inactive
20 | Cc1noc(C)c1S(=O)(=O)N(C)C[C@@H]1Oc2ccc(NS(=O)(=O)c3ccccc3)cc2CC(=O)N([C@@H](C)CO)C[C@H]1C | inactive
21 | C[C@H]1CN([C@@H](C)CO)C(=O)Cc2cc(NC(=O)Nc3cccc4ccccc34)ccc2O[C@H]1CN(C)S(=O)(=O)c1ccc(Cl)cc1 | active
22 | Cc1noc(C)c1NC(=O)Nc1cccc2c1O[C@H](CN(C)C(=O)Nc1ccc(C(F)(F)F)cc1)[C@@H](C)CN([C@H](C)CO)C2=O | inactive
23 | CO[C@H]1CN(C)C(=O)c2cc(NC(=O)Nc3cccc(Cl)c3)ccc2OC[C@H](C)N(C(=O)Nc2c(C)noc2C)C[C@@H]1C | inactive
24 | C[C@@H]1CN([C@@H](C)CO)C(=O)c2cc(NC(=O)Nc3ccc4c(c3)OCO4)ccc2O[C@@H]1CN(C)Cc1ccc(Oc2ccccc2)cc1 | active

What follows are compounds tested on S. aureus RN4220 (assay: growth inhibition call (relative growth <= 0.2)). Conditions: 50 µM.

Row | SMILES | growth inhibition call
25 | COc1ccc(NC(=O)N(C)C[C@@H]2Oc3c(NC(=O)Nc4ccc(C(F)(F)F)cc4)cccc3C(=O)N([C@H](C)CO)C[C@H]2C)cc1 | inactive
26 | CC(=O)N[C@H]1CSSC[C@@H](C(N)=O)NC(=O)[C@H](C(C)C)NC(=O)[C@H](C)NC(=O)[C@H](Cc2cnc[nH]2)NC1=O | inactive
27 | C[C@H](CO)N1C[C@H](C)[C@H](CN(C)Cc2ccc(C(F)(F)F)cc2)OCCCC[C@H](C)Oc2ccc(NC(=O)C3CCCCC3)cc2C1=O | inactive
28 | CC(C)NC(=O)N(C)C[C@H]1Oc2ccc(NC(=O)NC3CCCCC3)cc2C(=O)N([C@H](C)CO)C[C@H]1C | inactive
29 | COc1ccc(NC(=O)N2C[C@@H](O)COC[C@@H]3O[C@@H](CC(=O)NC4Cc5ccccc5C4)CC[C@H]32)cc1 | inactive
30 | C[C@@H]1CCCCO[C@H](CN(C)C(=O)c2ccccc2)[C@H](C)CN([C@@H](C)CO)C(=O)c2cc(NC(=O)Nc3ccccc3)ccc2O1 | inactive
31 | COc1ccc(S(=O)(=O)Nc2ccc3c(c2)C(=O)N([C@@H](C)CO)C[C@@H](C)[C@H](CN(C)C(=O)NC(C)C)O3)cc1 | inactive
32 | C[C@@H]1CN([C@H](C)CO)C(=O)Cc2cc(NC(=O)CCCCCC(=O)Nc3ccccc3N)ccc2O[C@H]1CN(C)CC1CCCCC1 | inactive
33 | Cc1ccc2ncc(-c3ccc4cc(C)ccc4n3)cc2c1 | inactive
34 | CN(C)CC(=O)N[C@H]1C=C[C@H](CC(=O)O)O[C@H]1CO | inactive
35 | C[C@H]1CCCCO[C@H](CN(C)Cc2ccc3c(c2)OCO3)[C@@H](C)CN([C@@H](C)CO)C(=O)c2cc(NC(=O)Cc3ccccc3)ccc2O1 | inactive
36 | C[C@@H]1CN([C@@H](C)CO)C(=O)c2cccc(NS(=O)(=O)c3cn(C)cn3)c2O[C@@H]1CN(C)S(=O)(=O)c1ccc(F)cc1 | inactive
37 | CO[C@@H]1CN(C)C(=O)c2ccc(NC(=O)C3CC3)cc2OC[C@H](C)N(C(=O)Cc2ccccn2)C[C@H]1C | inactive
38 | CCCNC(=O)C[C@@H]1CC[C@@H]2[C@H](COC[C@H](O)CN2S(=O)(=O)c2ccc(Oc3ccccc3)cc2)O1 | inactive
39 | C[C@H]1CN([C@@H](C)CO)C(=O)c2cc(NC(=O)Nc3ccccc3)ccc2O[C@@H]1CN(C)C(=O)Nc1cccc2ccccc12 | inactive
40 | C[C@@H]1CN([C@H](C)CO)C(=O)c2cccc(NS(=O)(=O)c3ccc(Cl)cc3)c2O[C@H]1CN(C)Cc1ccc(C(F)(F)F)cc1 | inactive
41 | CC(=O)N1CCc2nc(N)sc2C1 | inactive
42 | COc1ccc(CN(C)C[C@H]2OCCCC[C@H](C)Oc3ccc(NC(=O)Nc4ccc(C(F)(F)F)cc4)cc3C(=O)N([C@@H](C)CO)C[C@H]2C)cc1 | inactive

Row | SMILES | growth inhibition call
43 | C[C@H]1CN([C@@H](C)CO)C(=O)c2cc(NS(=O)(=O)c3ccc(F)cc3)ccc2O[C@H]1CN(C)S(=O)(=O)c1cccs1 | inactive
44 | Nc1nc(C(F)(F)F)ncc1C(=O)O | inactive
45 | C[C@H]1O[C@@H](O[C@H]2[C@@H](O)[C@@H](O)[C@@H](O[C@H]3CC[C@]4(C)[C@H]5CC=C6[C@H]7CC(C)(C)[C@H]8C[C@]7(C(=O)O8)[C@@H](O)C[C@]6(C)[C@@]5(C)CC[C@H]4C3(C)C)O[C@@H]2CO)[C@@H](O)[C@@H](O[C@H]2OC[C@@H](O)[C@@H](O)[C@@H]2O)[C@@H]1O | inactive
46 | C[C@@H]1CN([C@H](C)CO)C(=O)c2cc(NC(=O)C3CC3)ccc2O[C@H]1CN(C)Cc1ccc2c(c1)OCO2 | inactive
47 | C/C=C/c1cnc2c(c1)C(=O)N([C@@H](C)CO)C[C@@H](C)[C@@H](CN(C)S(=O)(=O)c1ccc(OC)cc1)O2 | inactive
48 | C[C@@H]1CCCCO[C@@H](CN(C)Cc2ccc3c(c2)OCO3)[C@H](C)CN([C@H](C)CO)C(=O)c2cc(NC(=O)Nc3ccc4c(c3)OCO4)ccc2O1 | inactive
49 | C[C@@H]1CN([C@@H](C)CO)S(=O)(=O)c2ccc(-c3ccncc3)cc2O[C@H]1CN(C)Cc1ccc(Oc2ccccc2)cc1 | inactive
50 | C[C@H]1CN([C@@H](C)CO)C(=O)Cc2cc(N(C)C)ccc2O[C@H]1CN(C)C(=O)Nc1ccc2c(c1)OCO2 | inactive
51 | C[C@H]1CN([C@@H](C)CO)C(=O)Cc2cc(NC(=O)C3CC3)ccc2O[C@@H]1CN(C)Cc1ccc(C(=O)O)cc1 | inactive
52 | C[C@@H]1CN([C@H](C)CO)C(=O)c2cc(NC(=O)C3CCCCC3)ccc2O[C@@H](C)CCCCO[C@@H]1CN(C)S(=O)(=O)c1ccccc1 | inactive
53 | COc1ccc(CN(C)C[C@@H]2OCCCC[C@@H](C)Oc3ccc(NC(=O)c4ccccc4)cc3C(=O)N([C@H](C)CO)C[C@@H]2C)cc1 | inactive
54 | Cc1noc(C)c1S(=O)(=O)Nc1cccc2c1O[C@@H](CN(C)Cc1ccncc1)[C@@H](C)CN([C@H](C)CO)C2=O | inactive
55 | Cc1noc(C)c1S(=O)(=O)N(C)C[C@@H]1OCCCC[C@H](C)Oc2ccc(NS(=O)(=O)c3cn(C)cn3)cc2C(=O)N([C@@H](C)CO)C[C@H]1C | inactive
56 | C[C@@H]1CN([C@@H](C)CO)C(=O)Cc2cc(NC(=O)CCC(F)(F)F)ccc2O[C@H]1CN(C)Cc1ccc(C(=O)Nc2ccccc2N)cc1 | inactive
57 | CC(C)Cn1c(=O)[nH]c2c1c(=O)n(C)c(=O)n2C | inactive
58 | CO[C@@H]1CN(C)C(=O)c2ccc(NC(=O)c3ccccc3)cc2OC[C@@H](C)N(C(=O)CN(C)C)C[C@H]1C | inactive
59 | C[C@@H]1CN([C@H](C)CO)C(=O)c2cc(NC(=O)CCCN(C)C)ccc2O[C@H]1CN(C)S(=O)(=O)c1ccc(F)cc1 | inactive
60 | Cc1noc(C)c1S(=O)(=O)N(C)C[C@@H]1Oc2ccc(NS(=O)(=O)c3ccccc3)cc2CC(=O)N([C@@H](C)CO)C[C@H]1C | inactive
